In the supplement of paper PMC4604168 (melanoma cell lines):
The list shows a part of the results. Many values rest on one well or one pass, so single values are uncertain.

Experiments:
Experiment in all cases: cell count relative to DMSO control; melanoma cells; higher = more viable cells
Conditions in all cases: library dose: low library concentration; 72 h
WM115 = test system: WM115
WM1716 = test system: WM1716
WM1745 = test system: WM1745
WM3526 = test system: WM3526
WM3619 = test system: WM3619
WM451Lu = test system: WM451Lu
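Further: cell number obtained by counting DAPI-stained nuclei in high-throughput microscope images with image analysis software, screen run in 1,536-well plates.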

| Compound | cell count (WM115) [%] | cell count (WM1716) [%] | cell count (WM1745) [%] | cell count (WM3526) [%] | cell count (WM3619) [%] | cell count (WM451Lu) [%] |
| --- | --- | --- | --- | --- | --- | --- |
| C[C@]12O[C@H](C[C@]1(O)CO)n1c3ccccc3c3c4c(c5c6ccccc6n2c5c31)CNC4=O [Lestaurtinib] + CN(NC(=O)CC(=O)NN(C)C(=S)c1ccccc1)C(=S)c1ccccc1 [STA4783] (first compound 0.004 µM, partner dose 0.006 µM) | 79.3 | 91.7 | 86.4 | 82.7 | 105 | 89.6 |
| Cn1cc(C2=C(c3cn(C4CCN(Cc5ccccn5)CC4)c4ccccc34)C(=O)NC2=O)c2ccccc21 [Enzastaurin] + Cc1cc([N+](=O)[O-])ccc1NS(=O)(=O)c1cc(Cl)ccc1Cl [FH535] (first compound 0.8 µM, partner dose 1 µM) | 102 | 98.8 | 94.4 | 92.1 | 85.6 | 105 |
| C[C@]12O[C@H](C[C@]1(O)CO)n1c3ccccc3c3c4c(c5c6ccccc6n2c5c31)CNC4=O [Lestaurtinib] + C[C@]1(c2nc3c(C(N)=O)cccc3[nH]2)CCCN1 [Veliparib] (first compound 0.004 µM, partner dose 1.4 µM) | 94.3 | 94 | 85.9 | 95.4 | 98.8 | 116 |
| N.N.[Cl][Pt][Cl] [cisplatin] + Oc1cc(-c2nc(-c3ccccc3)[nH]c2-c2ccncc2)ccc1Cl [L779450] (first compound 1.6 µM, partner dose 0.2 µM) | 101 | 97.4 | 85.7 | 96.3 | 84.1 | 93.9 |
| N.N.[Cl][Pt][Cl] [cisplatin] + Clc1ccc(Nc2nnc(Cc3ccncc3)c3ccccc23)cc1 [vatalanib] (first compound 1.6 µM, partner dose 2 µM) | 107 | 109 | 92.4 | 102 | 77.9 | 90.9 |
| Cn1cc(C2=C(c3cn(C4CCN(Cc5ccccn5)CC4)c4ccccc34)C(=O)NC2=O)c2ccccc21 [Enzastaurin] + CN1CCN(c2ccc3nc(-c4c(N)c5c(F)cccc5[nH]c4=O)[nH]c3c2)CC1 [Dovitinib] (first compound 0.8 µM, partner dose 0.1 µM) | 115 | 103 | 87.6 | 119 | 114 | 102 |
| N.N.[Cl][Pt][Cl] [cisplatin] + Cc1cc(SCc2sc(-c3ccc(C(F)(F)F)c(F)c3)nc2C)ccc1OCC(=O)O [GW0742] (first compound 1.6 µM, partner dose 2 µM) | 87.4 | 89.5 | 107 | 104 | 84.9 | 97.2 |
| C[As](C)SC[C@H](NC(=O)CC[C@H](N)C(=O)O)C(=O)NCC(=O)O [Darinaparsin] + CN(C)S(=O)(=O)c1ccc2c(c1)/C(=C/c1cc3c([nH]1)CCCC3)C(=O)N2 [SU6656] (first compound 0.4 µM, partner dose 0.4 µM) | 99.7 | 113 | 104 | 88.6 | 97.3 | 108 |
| C[C@]12O[C@H](C[C@]1(O)CO)n1c3ccccc3c3c4c(c5c6ccccc6n2c5c31)CNC4=O [Lestaurtinib] + CC1(C)NC(=O)N(c2ccc([N+](=O)[O-])c(C(F)(F)F)c2)C1=O [nilutamide] (first compound 0.004 µM, partner dose 1 µM) | 107 | 103 | 101 | 82.6 | 114 | 96.5 |
| Cn1cc(C2=C(c3cn(C4CCN(Cc5ccccn5)CC4)c4ccccc34)C(=O)NC2=O)c2ccccc21 [Enzastaurin] + CC(=O)O[C@@]12CO[C@@H]1C[C@H](O)[C@@]1(C)C(=O)[C@H](O)C3=C(C)[C@@H](OC(=O)[C@H](O)[C@@H](NC(=O)OC(C)(C)C)c4ccccc4)C[C@@](O)([C@@H](OC(=O)c4ccccc4)[C@H]21)C3(C)C [Docetaxel] (first compound 0.8 µM, partner dose 0.0001 µM) | 71.5 | 48.1 | 52 | 55.8 | 67.5 | 78.3 |
| C[C@]12O[C@H](C[C@]1(O)CO)n1c3ccccc3c3c4c(c5c6ccccc6n2c5c31)CNC4=O [Lestaurtinib] + O=C(Nc1ccccc1)c1cc([N+](=O)[O-])ccc1Cl [GW9662] (first compound 0.004 µM, partner dose 2 µM) | 101 | 114 | 90.1 | 121 | 99.8 | 120 |
| N.N.[Cl][Pt][Cl] [cisplatin] + COc1ccc(-c2ccc3c(N4CCOCC4)nc(N4C[C@@H](C)O[C@@H](C)C4)nc3n2)cc1CO [KU0063794] (first compound 1.6 µM, partner dose 0.02 µM) | 88.5 | 103 | 88.1 | 93.7 | 88.1 | 128 |
| Cn1cc(C2=C(c3cn(C4CCN(Cc5ccccn5)CC4)c4ccccc34)C(=O)NC2=O)c2ccccc21 [Enzastaurin] + OCc1c[nH]c2ccccc12 [Indole-3-carbinol] (first compound 0.8 µM, partner dose 0.8 µM) | 111 | 98.4 | 101 | 99.6 | 89.5 | 99.6 |
| C[C@]12O[C@H](C[C@]1(O)CO)n1c3ccccc3c3c4c(c5c6ccccc6n2c5c31)CNC4=O [Lestaurtinib] + CCN(CC)CCCCNc1ncc2cc(-c3cc(OC)cc(OC)c3)c(NC(=O)NC(C)(C)C)nc2n1 [PD173074] (first compound 0.004 µM, partner dose 0.1 µM) | 107 | 94.3 | 83.2 | 75.4 | 96 | 113 |
| N.N.[Cl][Pt][Cl] [cisplatin] + CS(=O)(=O)CCNCc1ccc(-c2ccc3ncnc(Nc4ccc(OCc5cccc(F)c5)c(Cl)c4)c3c2)o1 [lapatinib] (first compound 1.6 µM, partner dose 0.8 µM) | 114 | 90.6 | 97.6 | 93.9 | 94.9 | 77.3 |
| N.N.[Cl][Pt][Cl] [cisplatin] + C[C@@H](Oc1cc(-c2cnn(C3CCNCC3)c2)cnc1N)c1c(Cl)ccc(F)c1Cl [Crizotinib] (first compound 1.6 µM, partner dose 0.2 µM) | 98.5 | 114 | 102 | 103 | 129 | 89.8 |
| Cn1cc(C2=C(c3cn(C4CCN(Cc5ccccn5)CC4)c4ccccc34)C(=O)NC2=O)c2ccccc21 [Enzastaurin] + Cn1cncc1[C@@](N)(c1ccc(Cl)cc1)c1ccc2c(c1)c(-c1cccc(Cl)c1)cc(=O)n2C [tipifarnib] (first compound 0.8 µM, partner dose 0.01 µM) | 90.3 | 95.3 | 107 | 120 | 126 | 92 |
| Cn1cc(C2=C(c3cn(C4CCN(Cc5ccccn5)CC4)c4ccccc34)C(=O)NC2=O)c2ccccc21 [Enzastaurin] + C=CCNC1=C2C[C@@H](C)C[C@H](OC)[C@H](O)[C@@H](C)/C=C(\C)[C@H](OC(N)=O)[C@@H](OC)/C=C\C=C(/C)C(=O)NC(=CC1=O)C2=O [Tanespimycin] (first compound 0.8 µM, partner dose 0.002 µM) | 104 | 101 | 92.2 | 113 | 75.7 | 110 |
| C[C@]12O[C@H](C[C@]1(O)CO)n1c3ccccc3c3c4c(c5c6ccccc6n2c5c31)CNC4=O [Lestaurtinib] + C/C(O)=C(\C#N)C(=O)Nc1cc(Br)ccc1Br [LFM-A13] (first compound 0.004 µM, partner dose 2 µM) | 106 | 93.8 | 86.7 | 78.4 | 87.5 | 150 |
| C[As](C)SC[C@H](NC(=O)CC[C@H](N)C(=O)O)C(=O)NCC(=O)O [Darinaparsin] + O=C(Nc1cccc(Cl)c1)Nc1ncc(CCNc2ncnc3ccsc23)s1 [SNS314] (first compound 0.4 µM, partner dose 0.0008 µM) | 81.6 | 102 | 114 | 99.4 | 103 | 82.9 |
| Cn1cc(C2=C(c3cn(C4CCN(Cc5ccccn5)CC4)c4ccccc34)C(=O)NC2=O)c2ccccc21 [Enzastaurin] + COc1cc2ncnc(Nc3ccc(Oc4ccccc4)cc3)c2cc1OC [SrcI1] (first compound 0.8 µM, partner dose 2 µM) | 112 | 112 | 89.4 | 107 | 82.7 | 119 |
| N.N.[Cl][Pt][Cl] [cisplatin] + CO[C@@H]1[C@H](N(C)C(=O)c2ccccc2)C[C@H]2O[C@]1(C)n1c3ccccc3c3c4c(c5c6ccccc6n2c5c31)C(=O)NC4 [Midostaurin] (first compound 1.6 µM, partner dose 0.08 µM) | 89.1 | 82.3 | 88 | 95.7 | 79.1 | 85.9 |
| Cn1cc(C2=C(c3cn(C4CCN(Cc5ccccn5)CC4)c4ccccc34)C(=O)NC2=O)c2ccccc21 [Enzastaurin] + COc1ccc(Cl)c(Nc2nc3ccccc3nc2NS(=O)(=O)c2cccc(NC(=O)C(C)(C)N)c2)c1 [XL147] (first compound 0.8 µM, partner dose 0.8 µM) | 101 | 110 | 76.6 | 105 | 86.2 | 97.5 |
| Cn1cc(C2=C(c3cn(C4CCN(Cc5ccccn5)CC4)c4ccccc34)C(=O)NC2=O)c2ccccc21 [Enzastaurin] + Oc1cc(-c2nc(-c3ccccc3)[nH]c2-c2ccncc2)ccc1Cl [L779450] (first compound 0.8 µM, partner dose 0.2 µM) | 99.5 | 125 | 99.2 | 85 | 109 | 117 |
